The campaign covered roughly 280,000 compounds. About 100 (0.036%) were called active. Inconclusive means that the source gave no clear call. Such entries were picked first, then a sample of the others. Calls follow the shape of the dose curve; as a rule, active = well fitted inhibition curve with a large enough effect in the signal ratio, with a control signal flat (not every such curve was filed as active); inconclusive = small, poorly fitted or top-dose-only effect, or effect the other way, or a change in a side signal; inactive = no such curve, though single readings can be large or run the other way; the % refers to the signal ratio. Potencies beside an inconclusive call are fits to weak or partial responses and may not hold up. “Side channel” marks fits to a control or component signal instead of the main read-out. Starred links: 1 amine or outer side, 2 acyl side, 3 side chain; linkers in the order of their positions; H or OH if unused. Positions of bridges follow the written chain, without caps; N, C: chain ends. Non-standard residues stand in square brackets, D forms with d. Residues, ends and D or L forms follow the SMILES beside them. ξ: configuration not given here. hSer(Ph(2-I,4-NO2,6-CO)) = O=C([C@H](CCOc1c(I)cc([N+](=O)[O-])cc1C(=O)[*:3])N[*:1])[*:2]; ξD = NC(CC(=O)O)C(=O)O
target: Muscleblind-like protein 1 (Homo sapiens) (UniProt Q9NR56); assay: qHTS Assay for Inhibitors of MBNL1-poly(CUG) RNA binding; conditions: TR-FRET MBNL1-His/biotin-(CUG)12 binding, 665/545 ratio; series mostly up to 57.5 µM
Procedure, shortened: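 His-tagged MBNL1 binding to biotinylated (CUG)12 RNA was measured by TR-FRET using terbium anti-His antibody (0.055 ng/ul final) and streptavidin-XL665 (5 nM final). Compounds were titrated 92 nM to 58 uM; 60 min at room temperature.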
Potency is read from the fitted curve at half-maximal effect; tags tell the direction and shape of the fitted curve or compound fluorescence and quenching.

Sequence of UniProt Q9NR56 (Q9NR56 whole entry, looked up): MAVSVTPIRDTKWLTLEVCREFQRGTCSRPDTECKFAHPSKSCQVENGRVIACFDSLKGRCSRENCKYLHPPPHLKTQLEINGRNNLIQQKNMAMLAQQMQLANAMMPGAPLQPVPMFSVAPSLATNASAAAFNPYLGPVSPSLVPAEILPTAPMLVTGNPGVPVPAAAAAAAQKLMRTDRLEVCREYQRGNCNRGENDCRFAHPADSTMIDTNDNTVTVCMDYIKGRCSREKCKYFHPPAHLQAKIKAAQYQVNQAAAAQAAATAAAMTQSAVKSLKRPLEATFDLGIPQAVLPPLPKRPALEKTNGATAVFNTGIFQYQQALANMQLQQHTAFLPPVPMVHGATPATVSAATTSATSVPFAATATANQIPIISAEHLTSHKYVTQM

SMILES | Potency
Cc1cc2c3c(ccc(C)c3n1)N=CN2c1ccccc1 | inconclusive: 15.8 µM [quencher, side channel, partial curve]
O=C1c2cccc3cccc(c23)C(=O)N1c1ccccn1 | inconclusive: 8.91 µM [quencher, side channel, partial curve]
Cc1ccc(Nc2nnc(SCc3cc(=O)n4cc(C)ccc4n3)s2)cc1 | inconclusive: 79.4 µM [inhibitor, single point]
Cc1ccc(O)c(C(=O)c2cc(C#N)c(=O)n(-c3nccs3)c2)c1 | inconclusive: 25.1 µM [quencher, side channel, partial curve]
CCc1cccc(C)c1NC(=O)C1CCN(C(=O)c2ccc([N+](=O)[O-])cc2)CC1 | inconclusive: 14.1 µM [quencher, partial curve]
Cc1ccc(C)c2[nH]c(=O)c(CN(CCN3CCCC3)C(=O)Nc3cccc(Cl)c3)cc12 | inconclusive: 39.8 µM [quencher, side channel, single point]
CCOC(=O)C(Oc1ccc2c(-c3ccccc3)cc(=O)oc2c1C)c1ccccc1 (stereo not drawn) | inconclusive: 0.316 µM [fluorescent, side channel, partial curve]
Cc1ccc(C(=O)NNC(=O)c2ccc3ccccc3c2O)cc1 | inactive
O=C(CCc1nnc2ccc(NCc3ccco3)nn12)Nc1ccc(F)cc1 | inactive
CC(=O)Nc1ccc(S(=O)(=O)N2CCC(C(=O)NCCc3c[nH]c4ccccc34)CC2)cc1 | inactive
COc1ccc(CNC(=O)COc2ccc(C)nc2[N+](=O)[O-])cc1 | inconclusive: 25.1 µM [quencher, side channel, partial curve]
COc1ccc(/C=C/C(=O)c2cc3cccc(OC)c3oc2=O)cc1 | inconclusive: 3.55 µM [quencher, side channel, full curve]
CCOCc1nnc(NC(=O)c2cc(OC)c(OC)cc2[N+](=O)[O-])s1 | inconclusive: 22.4 µM [quencher, side channel, partial curve]
Cc1cc(/C=C2/NC(=O)NC2=O)c(C)n1-c1ccc(C#N)cc1 | inconclusive: 14.1 µM [quencher, side channel, partial curve]
C=CCNC(=O)c1onc(CSc2cccc3ccccc23)c1C(=O)O | inactive
CCN(C(=O)COC(=O)c1c(-c2ccccc2)noc1C)C1CCS(=O)(=O)C1 (stereo not drawn) | inconclusive: 2.24 µM [fluorescent, side channel, full curve, poor fit]
Cc1ccccc1C(=O)O/N=C(\N)c1cccc([N+](=O)[O-])c1 | inconclusive: 10 µM [quencher, partial curve]
CN1CCN2c3ccccc3Cc3ccccc3C2C1 (stereo not drawn) | inconclusive: 31.6 µM [quencher, side channel, single point]
CCOC(=O)C1(Cc2cccc(Cl)c2)CCCN(C(=O)c2ccco2)C1 (stereo not drawn) | inactive
COc1ccc(C2C(C#N)=C(N)SC(N)=C2C#N)cc1OC | inconclusive: 15.8 µM [quencher, side channel, partial curve]

SMILES | Potency
Fc1cccc(Cl)c1Cn1nnc(-c2ccc(N3CCOCC3)cc2)n1 | inactive
C/C(=N\NC(=O)c1cccc([N+](=O)[O-])c1)c1ccncc1 | inconclusive: 15.8 µM [quencher, side channel, partial curve]
O=c1c2ccccc2[nH]c2ccccc12 | inconclusive: 15.8 µM [quencher, partial curve]
CC1CCCC(NC(=O)COC(=O)c2ccc(N(C)C)cc2)C1C (stereo not drawn) | inactive
CCCC1=NN(C(=O)C(=O)Nc2ccc(Br)cc2)C(O)(C(F)(F)F)C1 (stereo not drawn) | inactive
COc1ccc2nc(SCCOC(=O)Nc3ccc(Cl)cc3)nc(C)c2c1 | inconclusive: 22.4 µM [fluorescent, side channel, partial curve]
COc1ccc(/C=N/NC(=O)c2cc3c(OC)ccc(OC)c3[nH]2)cc1O | inconclusive: 20 µM [quencher, side channel, partial curve]
CN(C)/C=C1/Nc2ccccc2C1=O | inconclusive: 25.1 µM [quencher, single point]
CCCN1CCN(CCCNC(=O)Cn2cc3c(n2)CCCC3)CC1 | inconclusive: 31.6 µM [quencher, side channel, single point]
COc1ccc(NCC(=O)N/N=C/c2cc([N+](=O)[O-])ccc2N2CCCC2)cc1 | inconclusive: 39.8 µM [quencher, single point]
CCC(C)(C)n1nnnc1C(c1ccccn1)N1CCCCC1 (stereo not drawn) | inconclusive: 25.1 µM [quencher, side channel, single point]
O=C(CCNC(=O)c1ccccc1)Oc1ccc([N+](=O)[O-])cc1 | inconclusive: 39.8 µM [quencher, side channel, single point]
CCOc1ccc(CN2CCCC(CNC(=O)c3ccc(F)cc3)C2)cc1CO (stereo not drawn) | inactive
O=C(c1ccccc1Cl)N1N=C(c2cccs2)CC1c1cccc(O)c1 (stereo not drawn) | inconclusive: 31.6 µM [quencher, side channel, single point]
O=C(Nc1cccc(-c2nn[nH]n2)c1)c1ccc(Cl)s1 | inactive
Cc1cccc(NS(=O)(=O)c2ccc3[nH]c(=O)cc(C(=O)O)c3c2)c1 | inconclusive: 7.08 µM [fluorescent, side channel, single point]
CCCC(C)C(=O)Nc1ncc(S(=O)(=O)c2ccc([N+](=O)[O-])cc2)s1 (stereo not drawn) | inconclusive: 39.8 µM [quencher, single point]
O=C(CSc1nc2ccccc2[nH]1)N/N=C/c1ccco1 | inconclusive: 15.8 µM [quencher, side channel, partial curve]
COc1ccccc1/C=C\C(=O)NCC(=O)N/N=C(/C)c1cccc([N+](=O)[O-])c1 | inconclusive: 14.1 µM [quencher, side channel, partial curve]
COc1cc(NC(=O)C23CC4CC(C2)CC(n2cnc([N+](=O)[O-])n2)(C4)C3)cc(OC)c1 | inconclusive: 10 µM [quencher, side channel, partial curve]

SMILES | Potency
CC(=O)Nc1ccc(NC(=O)C2CCCN2S(=O)(=O)c2cccc3nsnc23)cc1 (stereo not drawn) | inconclusive: 11.2 µM [quencher, side channel, partial curve]
COc1cc(S(=O)(=O)NC2CCCCC2)ccc1Cl | inactive
CC(=C/c1ccccc1)/C=N/NC(=O)c1ccc2nc[nH]c2c1 | inconclusive: 10 µM [quencher, side channel, partial curve]
CCCOC(=O)c1[nH]c2c(c1C)C(=O)CC(c1cc(OC)c(OC)c(OC)c1)C2 (stereo not drawn) | inconclusive: 22.4 µM [quencher, side channel, single point]
COc1ccc(C(=O)N/C(=C/c2cccs2)C(=O)NN)cc1OC | inconclusive: 35.5 µM [quencher, side channel, single point]
NC(=O)C(CC(=O)O)NC(=O)[C@@H]1CCOc2c(I)cc([N+](=O)[O-])cc2C(=O)N[C@@H](CO)C(=O)N[C@@H](Cc2ccc(O)cc2)C(=O)N1 (stereo partly drawn) (SY[hSer(Ph(2-I,4-NO2,6-CO))][ξD]-NH2; lactam N-3) | inconclusive: 11.2 µM [quencher, side channel, partial curve]
C=CCN1C(=O)/C(=C/C=C2/N(CC)c3ccc(S(=O)(=O)N(C)C)cc3N2CC)SC1=S | inconclusive: 3.55 µM [quencher, side channel, full curve]
O=C(NNc1c([N+](=O)[O-])cc(C(F)(F)F)cc1[N+](=O)[O-])c1ccco1 | inconclusive: 20 µM [quencher, side channel, partial curve]
COc1ccc(CN2C(=O)c3cccnc3C2=O)cc1S(=O)(=O)N1CC(C)Oc2ccccc21 (stereo not drawn) | inconclusive: 14.1 µM [quencher, side channel, partial curve]
COc1ccc2cc(Br)ccc2c1CC(=O)N1CCCC1 | inconclusive: 17.8 µM [quencher, side channel, partial curve]
O=C(/C=C/c1cccc([N+](=O)[O-])c1)N1CC[C@@]2(O)CCCC[C@H]2C1 | inconclusive: 6.31 µM [quencher, side channel, partial curve]
CCOC(=O)CN(C)Cc1cn[nH]c1-c1ccc2cc(OC)ccc2c1 | inconclusive: 39.8 µM [quencher, side channel, single point]
Cc1ccc(/C=N/NC(=O)c2ccc3nc[nH]c3c2)s1 | inconclusive: 14.1 µM [quencher, side channel, partial curve]
CCOC(=O)c1ccc(-c2ccc(C3Nc4ccccc4C(=O)N3O)o2)cc1 (stereo not drawn) | inconclusive: 39.8 µM [quencher, side channel, single point]
CCn1c(O)c2ccc(C(=O)N=NC(=O)c3cccnc3)cc2c1O | inconclusive: 14.1 µM [quencher, side channel, partial curve]
C/C(=N\Nc1nc(-c2cc(C)ccc2C)cs1)c1cc2c(ccc3ccccc32)oc1=O | inconclusive: 39.8 µM [quencher, side channel, single point]
COC(=O)c1ccc(Cn2c(O)c(N=O)c3ccccc32)o1 | inconclusive: 31.6 µM [quencher, side channel, single point]
C/C(=N\NC(=O)CSCc1ccccc1Cl)c1cc(O)ccc1O | inactive

— PubChem BioAssay AID2675 (National Center for Advancing Translational Sciences (NCATS), 2010)
